Test results: article PMC5472178
Results are given in words; binding and its absence hold for the method and conditions named. In cells and extracts the contact can be indirect. Some entries that bind do so weakly or less than the wild type. For some of these results: Where a sequence is shown, tags or fusion partners need not be part of it.

T1: Flag-tagged ZNRF1 (zinc and ring finger 1), full length (mouse) (UniProt Q91V17)
T1 sequence: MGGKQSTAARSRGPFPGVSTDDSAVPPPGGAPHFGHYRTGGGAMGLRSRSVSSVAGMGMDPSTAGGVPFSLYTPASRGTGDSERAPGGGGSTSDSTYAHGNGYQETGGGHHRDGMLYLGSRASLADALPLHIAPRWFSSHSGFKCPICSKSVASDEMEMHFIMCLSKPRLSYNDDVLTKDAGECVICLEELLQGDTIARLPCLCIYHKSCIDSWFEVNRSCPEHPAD

T2: ZNRF1(ΔN142), Flag-tagged (mouse) (UniProt Q91V17)
T2 sequence: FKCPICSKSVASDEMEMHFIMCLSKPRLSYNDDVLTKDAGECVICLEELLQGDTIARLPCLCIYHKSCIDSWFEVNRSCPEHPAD

T3: V5-tagged CAV1 (caveolin-1), full length (mouse) (UniProt P49817)
T3 sequence: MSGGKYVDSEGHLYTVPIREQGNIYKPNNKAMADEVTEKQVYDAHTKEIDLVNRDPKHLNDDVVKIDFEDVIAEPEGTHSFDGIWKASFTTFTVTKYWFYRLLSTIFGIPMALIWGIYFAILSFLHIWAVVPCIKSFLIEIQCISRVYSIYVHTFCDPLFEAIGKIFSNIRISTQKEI

T4: endogenous ZNRF1 of RAW264.7 macrophages (mouse (endogenous in RAW264.7)) (UniProt Q91V17)
T4 sequence: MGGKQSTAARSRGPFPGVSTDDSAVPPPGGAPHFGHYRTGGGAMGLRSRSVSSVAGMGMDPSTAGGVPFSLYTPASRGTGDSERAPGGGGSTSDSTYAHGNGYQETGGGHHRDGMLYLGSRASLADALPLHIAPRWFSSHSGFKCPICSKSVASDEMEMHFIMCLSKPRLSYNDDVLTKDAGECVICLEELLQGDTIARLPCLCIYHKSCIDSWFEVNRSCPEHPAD


What was measured:
[1] = biological target: T1, Flag-tagged ZNRF1 (zinc and ring finger 1), full length (mouse); experiment: co-IP; HEK293T cells co-transfected with V5-tagged CAV1 and Flag-tagged ZNRF1 (full length or truncated); lysis in 150 mM NaCl, 20 mM Tris-HCl pH 7.4, 0.5% Triton X-100; immunoprecipitation at 4 °C and immunoblotting
[2] = biological target: T2, ZNRF1(ΔN142), Flag-tagged (mouse); experiment: as above
[3] = biological target: T3, V5-tagged CAV1 (caveolin-1), full length (mouse); experiment: as above
[4] = biological target: T4, endogenous ZNRF1 of RAW264.7 macrophages (mouse (endogenous in RAW264.7)); experiment: co-IP; endogenous proteins; ZNRF1 immunoprecipitated from lysates of RAW264.7 cells treated with LPS (100 ng/ml) for the indicated times, immunoblot for CAV1

| Binder | binding [1] | also measured |
| --- | --- | --- |
| V5-tagged CAV1 (caveolin-1), full length (protein, UniProt P49817 1-178) MSGGKYVDSEGHLYTVPIREQGNIYKPNNKAMADEVTEKQVYDAHTKEIDLVNRDPKHLNDDVVKIDFEDVIAEPEGTHSFDGIWKASFTTFTVTKYWFYRLLSTIFGIPMALIWGIYFAILSFLHIWAVVPCIKSFLIEIQCISRVYSIYVHTFCDPLFEAIGKIFSNIRISTQKEI | binds | binding [2]: no binding |
| Flag-tagged ZNRF1 (zinc and ring finger 1), full length (enzyme, UniProt Q91V17 1-227) MGGKQSTAARSRGPFPGVSTDDSAVPPPGGAPHFGHYRTGGGAMGLRSRSVSSVAGMGMDPSTAGGVPFSLYTPASRGTGDSERAPGGGGSTSDSTYAHGNGYQETGGGHHRDGMLYLGSRASLADALPLHIAPRWFSSHSGFKCPICSKSVASDEMEMHFIMCLSKPRLSYNDDVLTKDAGECVICLEELLQGDTIARLPCLCIYHKSCIDSWFEVNRSCPEHPAD |  | binding [3]: binds |
| endogenous CAV1 of RAW264.7 macrophages (protein, UniProt P49817 1-178) MSGGKYVDSEGHLYTVPIREQGNIYKPNNKAMADEVTEKQVYDAHTKEIDLVNRDPKHLNDDVVKIDFEDVIAEPEGTHSFDGIWKASFTTFTVTKYWFYRLLSTIFGIPMALIWGIYFAILSFLHIWAVVPCIKSFLIEIQCISRVYSIYVHTFCDPLFEAIGKIFSNIRISTQKEI |  | binding [4]: binds |
| CAV1(Δ151), V5-tagged (domain or fragment, UniProt P49817 1-150) MSGGKYVDSEGHLYTVPIREQGNIYKPNNKAMADEVTEKQVYDAHTKEIDLVNRDPKHLNDDVVKIDFEDVIAEPEGTHSFDGIWKASFTTFTVTKYWFYRLLSTIFGIPMALIWGIYFAILSFLHIWAVVPCIKSFLIEIQCISRVYSI | binds |  |
| CAV1(Δ136–151), V5-tagged (protein, UniProt P49817) MSGGKYVDSEGHLYTVPIREQGNIYKPNNKAMADEVTEKQVYDAHTKEIDLVNRDPKHLNDDVVKIDFEDVIAEPEGTHSFDGIWKASFTTFTVTKYWFYRLLSTIFGIPMALIWGIYFAILSFLHIWAVVPCIKVHTFCDPLFEAIGKIFSNIRISTQKEI | no binding |  |
| CAV1(Δ136–178), V5-tagged (domain or fragment, UniProt P49817 1-135) MSGGKYVDSEGHLYTVPIREQGNIYKPNNKAMADEVTEKQVYDAHTKEIDLVNRDPKHLNDDVVKIDFEDVIAEPEGTHSFDGIWKASFTTFTVTKYWFYRLLSTIFGIPMALIWGIYFAILSFLHIWAVVPCIK | no binding |  |
